{"source": "PubChem BioAssay AID493208", "about": "(National Center for Advancing Translational Sciences (NCATS), 2011)", "note": "Hit rate of the full screen: of about 44,000 compounds, about 340 (0.77%) were called active. About 5% were inconclusive and are not listed. The call rests on the fitted dose curve; in most records, active means well fitted inhibition curve with a large enough effect; inconclusive means small, poorly fitted or top-dose-only effect; inactive means flat fitted curve, though single readings scatter. This is one part of the list. Potency means the concentration at half of the fitted maximal effect.", "data": [{"assay": "Acumen qHTS Assay for Inhibitors of the mTORC1 Signaling Pathway in MEF (Tsc2-/-, p53-/-) Cells: Sytravon; further: nearly all actives have a fitted effect of over 50% in size;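 on activity change, negative = inhibition: plate controls were DMSO for no effect and rapamycin for full effect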", "settings": "phospho-rpS6 immunofluorescence/PI, 24 h; series mostly up to 38.3 µM; activity change, negative = inhibition: at the top concentration", "method_in_brief": "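Immunofluorescence of rpS6 phosphorylation in Tsc2-/-, p53-/- MEFs after 24 h compound exposure, normalized to propidium iodide signal. Activity is expressed as % positive cells, thresholded with 7.5 nM rapamycin.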", "values": [{"smiles": "COc1ccc(OCc2ccc(-c3nc(C#N)c(NCc4ccc(F)cc4)o3)o2)cc1", "activity change, negative = inhibition": "inactive: -11.6%"}, {"smiles": "Cc1nc(N2CCCC2)ncc1C(=O)Nc1ccc(OC(F)(F)F)cc1", "activity change, negative = inhibition": "inactive: 4.76%"}, {"smiles": "COc1cc(OC)cc(-n2c(=O)c3sccc3n(Cc3cc(=O)n4c(C)cccc4n3)c2=O)c1", "activity change, negative = inhibition": "inactive: -2.59%"}, {"smiles": "Cc1ccc2c(CC(=O)Nc3nnc(C(C)C)s3)coc2c1C", "activity change, negative = inhibition": "inactive: 3.97%"}, {"smiles": "OCCN1CCN(c2ncnc3c2cnn3-c2cccc(Cl)c2)CC1", "activity change, negative = inhibition": "inactive: 11.5%"}, {"smiles": "Cc1ccc(Cl)cc1NC(=O)Cn1nnc2sc3c(c2c1=O)CCC(C(C)(C)C)C3", "note": "(configuration not stated)", "activity change, negative = inhibition": "inactive: 2.72%"}, {"smiles": "Cc1cccc(N(C)S(=O)(=O)c2nnc(NC(=O)C(C)(C)C)s2)c1", "activity change, negative = inhibition": "inactive: -2.92%"}, {"smiles": "COc1ccc(CCNc2ncnc3c2cnn3-c2ccc(F)cc2)cc1", "activity change, negative = inhibition": "inactive: 16.4%"}, {"smiles": "Brc1ccc(CN2CCc3nc(Nc4ccccc4)ncc3C2)s1", "activity change, negative = inhibition": "inactive: 0%"}, {"smiles": "COc1ccc(N(Cc2cc3cc(OC)ccc3[nH]c2=O)C(=O)c2cccc(Cl)c2)cc1", "activity change, negative = inhibition": "inactive: 5.71%"}, {"smiles": "COc1ccc(OC)c(CNC(=O)c2cc3c(=O)oc4ccc(C)cc4c3s2)c1", "activity change, negative = inhibition": "inactive: -1.53%"}, {"smiles": "COCCn1c(CCC(=O)Nc2ccc(OC)c(OC)c2)nc2cccnc21", "activity change, negative = inhibition": "inactive: -7.18%"}, {"smiles": "O=C(NCc1ccccc1Cl)c1cc(-c2ccccc2)n[nH]1", "activity change, negative = inhibition": "inactive: -8.05%"}, {"smiles": "O=C(Cn1c2ncccc2c(=O)n1-c1ccccc1)NCc1ccccc1", "activity change, negative = inhibition": "inactive: 6.5%"}, {"smiles": "Cc1nc(-c2ccccc2)sc1-c1ccc(SCC(=O)Nc2ccccc2)nn1", "activity change, negative = inhibition": "inactive: 5.08%"}, {"smiles": "Cc1oc(-c2cccc(Br)c2)nc1CN1CCC(C(=O)NCc2ccccc2)CC1", "activity change, negative = inhibition": "inactive: 2.72%"}, {"smiles": "COc1cccc(CNC(=O)Cc2c(C)c3cc4c(C)coc4cc3oc2=O)c1", "activity change, negative = inhibition": "inactive: 0.145%"}, {"smiles": "Cc1cc(C)cc(NC(=O)CSc2nccn2C2CCCC2)c1", "activity change, negative = inhibition": "inactive: -0.979%"}, {"smiles": "COc1cccc(NC(=O)c2csc3c2CCCCC3)c1", "activity change, negative = inhibition": "inactive: -1.68%"}, {"smiles": "CCc1ccc(NC(=O)N2CCN(c3nnc(C)c4c(C)n(-c5ccc(Cl)cc5)nc34)CC2)cc1", "activity change, negative = inhibition": "inactive: -14.6%"}, {"smiles": "Cc1ccc(CNCc2ccc3c(c2)n(C)c(=O)n3C)cc1", "activity change, negative = inhibition": "inactive: -10.8%"}, {"smiles": "O=C(CCNS(=O)(=O)c1ccc(Br)s1)Nc1ccc(Br)cc1", "activity change, negative = inhibition": "inactive: -3.8%"}, {"smiles": "c1ccc(Nc2c(-c3ccccc3)nc3ncccn23)cc1", "activity change, negative = inhibition": "inactive: -8.59%"}, {"smiles": "CCN1C(=O)c2ccccc2Sc2ccc(NC(=O)Cc3ccc(OC)c(OC)c3)cc21", "activity change, negative = inhibition": "inactive: -10.4%"}, {"smiles": "COc1ccc2c(c1)c(=O)c(S(=O)(=O)c1ccc(F)cc1)cn2CC(=O)Nc1ccc(C)cc1C", "activity change, negative = inhibition": "inactive: 5.07%"}, {"smiles": "COc1cc(NS(=O)(=O)c2ccc(NC(=O)COc3ccc(Cl)cc3Cl)cc2)nc(OC)n1", "activity change, negative = inhibition": "inactive: 16.1%"}, {"smiles": "CCOc1cccc(CC(=O)NCc2ccc3c(c2)CCN3C(=O)c2cccc(C)c2)c1OCC", "activity change, negative = inhibition": "inactive: -20.9%"}, {"smiles": "COc1ccc(CN(C(=O)Nc2cc(C)ccc2C)C2CCN(C(C)=O)CC2)cc1", "activity change, negative = inhibition": "inactive: -4.74%"}, {"smiles": "CCOc1ccccc1N(CC)C(=O)Cn1ncc2c1-c1ccccc1OC2", "activity change, negative = inhibition": "inactive: -8.63%"}, {"smiles": "CCOc1ccc(NC(=O)CSc2nc(-c3ccccc3)c3cc(OCC)ccc3n2)cc1", "activity change, negative = inhibition": "inactive: 2.84%"}, {"smiles": "COc1ccc(CNC(=O)c2cnc3sc4cc(OC)ccc4n3c2=O)cc1", "activity change, negative = inhibition": "inactive: -2.81%"}, {"smiles": "O=C(NCc1ccccc1Cl)C(=O)NCC(c1ccc2c(c1)OCO2)N1CCOCC1", "note": "(configuration not stated)", "activity change, negative = inhibition": "inactive: -1.29%"}, {"smiles": "CCC(CC)C(=O)N1CCc2cc(OC)c(OC)cc2C1COc1ccc2c(C)cc(=O)oc2c1", "note": "(configuration not stated)", "activity change, negative = inhibition": "inactive: 0.715%"}, {"smiles": "O=C(c1cc(S(=O)(=O)N2CCCC2)c[nH]1)N1CCN(c2cccc(Cl)c2)CC1", "activity change, negative = inhibition": "inactive: -15.7%"}, {"smiles": "CCOc1ccc2nc(N(Cc3cccnc3)C(=O)c3ccco3)sc2c1", "activity change, negative = inhibition": "inactive: 0.304%"}, {"smiles": "CCCSc1ncc(Cl)c(C(=O)NCc2ccc(C)cc2)n1", "activity change, negative = inhibition": "inactive: -1.47%"}, {"smiles": "COc1ccc(CNC(=O)CCS(=O)(=O)c2cc3c4c(c2)CCN4C(=O)CC3)cc1OC", "activity change, negative = inhibition": "inactive: 2.66%"}, {"smiles": "Cc1cc(Cl)ccc1NC(=O)CCS(=O)(=O)c1ccc2c(c1)CC(C)N2C(=O)C1CC1", "note": "(configuration not stated)", "activity change, negative = inhibition": "inactive: -0.859%"}, {"smiles": "COc1ccc(C2C(C(=O)Nc3cccnc3)=C(C)Nc3nc(-c4ccc(OC)c(OC)c4)nn32)cc1", "note": "(configuration not stated)", "activity change, negative = inhibition": "inactive: -0.71%"}, {"smiles": "O=C(Nc1cc(Cl)ccc1O)c1cc(-c2ccc3c(c2)OCO3)on1", "activity change, negative = inhibition": "inactive: -5.37%"}, {"smiles": "Cc1c(C(=O)N2CCCC2)oc2c1-c1nn(CC(=O)NCc3ccccc3F)cc1CC2", "activity change, negative = inhibition": "inactive: -0.463%"}, {"smiles": "CCc1nn2c(=O)c(S(=O)(=O)Nc3ccc(C)cc3C)c(C)nc2s1", "activity change, negative = inhibition": "inactive: -0.0809%"}, {"smiles": "COc1ccc(-c2nc(CSCC(=O)NCCc3ccc(OC)c(OC)c3)c(C)o2)cc1", "activity change, negative = inhibition": "inactive: 0.253%"}, {"smiles": "Cc1sc(NC(=O)C2c3ccccc3Oc3ccccc32)c(C(=O)OC(C)C)c1C", "activity change, negative = inhibition": "inactive: -5.21%"}, {"smiles": "Cc1ccc(S(=O)(=O)c2nnn3c2nc(N(C)Cc2ccccc2)c2cc(Cl)ccc23)cc1C", "activity change, negative = inhibition": "inactive: -9.53%"}, {"smiles": "CC(C)NC(=O)C1=CC(c2ccc3c(c2)OCO3)=NS(=O)(=O)N1C", "activity change, negative = inhibition": "inactive: 0.776%"}, {"smiles": "COc1ccccc1CNC(=O)c1cc2cccc3c2n1CCS3", "activity change, negative = inhibition": "inactive: -0.505%"}, {"smiles": "CCCN1CCN(c2ncnc3sc(C(=O)Nc4ccc(OC(F)(F)F)cc4)c(C)c23)CC1", "Potency": "active: 16.5 µM"}, {"smiles": "CC1CCN(c2nc3ccccc3nc2SCC(=O)Nc2ccccc2C(C)C)CC1", "activity change, negative = inhibition": "inactive: -9.21%"}, {"smiles": "CC(=O)c1ccc(NC(=O)Cn2c(=O)nc(-c3ccccc3)c3ccccc32)cc1", "activity change, negative = inhibition": "inactive: 5.48%"}, {"smiles": "O=C(CS(=O)(=O)c1cccc2nsnc12)N1CCN(c2ccc(F)cc2)CC1", "activity change, negative = inhibition": "inactive: 4.35%"}, {"smiles": "CCOc1ccc(C(=O)c2cn(CC(=O)Nc3ccc(C)c(Cl)c3)c3ccc(OCC)cc3c2=O)cc1", "activity change, negative = inhibition": "inactive: -2.67%"}, {"smiles": "CCCCC(=O)OCc1cc(=O)n2nc(C3CC3)sc2n1", "activity change, negative = inhibition": "inactive: -12.7%"}, {"smiles": "O=C(NC1(C(F)(F)F)N=C(c2ccccc2)N(Cc2ccccc2)C1=O)c1ccc(F)cc1", "note": "(configuration not stated)", "activity change, negative = inhibition": "inactive: -14.4%"}, {"smiles": "Cc1cc(-c2ccc(C)c(S(=O)(=O)Nc3ccc(C)c(N(C)C)c3)c2)on1", "activity change, negative = inhibition": "inactive: 2.78%"}, {"smiles": "CCOc1ccc(CCNC(=O)c2cc3n(n2)CCCN(Cc2ccc(C)cc2)C3=O)cc1OCC", "activity change, negative = inhibition": "inactive: 0%"}, {"smiles": "Cn1cnc(S(=O)(=O)N2CCC(C(=O)Nc3ccc(OC(F)(F)F)cc3)CC2)c1", "activity change, negative = inhibition": "inactive: 0%"}, {"smiles": "CCN(CC)c1cc(NC2CCCCC2)c2c3c(onc13)-c1ccccc1C2=O", "activity change, negative = inhibition": "inactive: 0.307%"}, {"smiles": "CC1CCN(S(=O)(=O)c2ccc3c(c2)N(CC(=O)N(C)Cc2ccccc2)C(=O)CO3)CC1", "activity change, negative = inhibition": "inactive: 1.18%"}, {"smiles": "O=c1c2sc3ccccc3c2n(Cc2cccc(Cl)c2)c(=O)n1Cc1ccc(F)cc1", "activity change, negative = inhibition": "inactive: -3.36%"}, {"smiles": "COc1cccc(CNC(=O)C2CCCN(c3nn4cc(-c5ccc(C)cc5)nc4s3)C2)c1", "note": "(configuration not stated)", "activity change, negative = inhibition": "inactive: -5.37%"}, {"smiles": "Cc1cc(C)c(NC(=O)Cn2nnc3sc4c(c3c2=O)CCC(C(C)(C)C)C4)c(C)c1", "note": "(configuration not stated)", "activity change, negative = inhibition": "inactive: 1.92%"}]}]}
